Results on two molecules are retold here after PubChem BioAssay AID2060614 (Molecular Pharmacology Branch, DTP, NCI, 2025).

SMILES strings stand for the structures. A number of entries come with more than one value. This list holds those alone. The source may hold further records. Results that share an entry repeat one measurement (runs, samples, wells, individuals or studies). Additions like (4×) say how often a value occurs here.

The assay concerns 598228-144-R-J1-PDC complex spheroids, viability. Description: Anticancer human tumor 598228-144-R-J1-PDC patient-derived serous endometrial adenocarcinoma cell line growth inhibition [CLK]. To be noted: stronger effect = lower value. The source says:
A high-throughput screen of multi-cell type tumor spheroids was designed to identify active combinations of […] and targeted small molecules. Complex spheroids include a stromal component modeled by human endothelial cells (HUVEC) and fibroblasts modeled by human mesenchymal stem cells (MSCs). The concentration ranges selected for each drug and investigational agent were based upon clinically achievable concentrations if the clinical Cmax of the agent was known.
Compounds. The drugs and investigational agents: cirtuvivint (SM08502; NSC835563), CC-671 (NSC850746), vemurafenib (NSC761431), tapotoclax (NSC804041), sotorasib (NSC818433), adagrasib (NSC831453), MRTX-1133 (NSC836407), BAY2416964 (NSC825713), copanlisib (NSC816437), inavolisib (NSC800729), abemaciclib (NSC768073), osimertinib (NSC779217), entinostat (NSC756642), eltanexor (KPT-8602, NSC794443), venetoclax (NSC766270), ceralasertib (NSC777638), bortezomib (NSC756655), olaparib (NSC753686), talazoparib (NSC767125), alisertib (NSC759677), peposertib (NSC802822), gemcitabine (NSC613327), 5-fluorouracil (NSC19893), SN-38 (NSC673596), oxaliplatin (NSC266046), paclitaxel (NSC125973), and doxorubicin (NSC123127), were obtained from the National Cancer Institute (NCI) Developmental Therapeutics Program Chemical Repository. The FDA-approved anticancer drug set is available from the Developmental Therapeutics Program at https://dtp.cancer.gov/organization/dscb/obtaining/available plates.htm. […] The stock solutions were prepared in dimethyl sulfoxide (DMSO, Sigma-Aldrich, St. Louis, MO, cat. D2650), except for the platinum complexes which were prepared in saline (Quality Biological, Gaithersburg, MD, cat. 114-055-101), at 800-fold the tested concentration and stored at -70 degrees C prior to their use. All drugs and investigational agents were tested over a range starting from a high concentration at or near the clinical Cmax and decreasing in half-log increments. If the clinical Cmax for an agent had not been determined, the highest concentration tested was 10 microM.
Cell Culture. All cells were maintained in an incubator at 37 degrees C and 5% CO2 with 95% humidity. The PDC lines were cultured according to standard operating procedures established by the NCI PDMR. Briefly, all PDCs were thawed and cultured in Matrigel-coated flasks prepared with a working solution of 1X Ham's F-12 nutrient mix, without supplementation (Invitrogen, Waltham, MA, cat. 11765054), 100 U/mL penicillin-streptomycin (Invitrogen, cat. 15140122), and 2.5% Matrigel (Corning Inc., Corning, NY, cat. 354248) for the first three passages. […]
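Further: spheroids exposed to compounds for seven days before readout; 100% = DMSO vehicle control wells.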

For the molecule `CN1CCN(c2cc(C(=O)Nc3cc4cc(-c5cnn(C)c5)ccc4cn3)ccn2)CC1`, the viability, T/C runs as follows: (compound alone 0.0316 µM) 127 (2×), 106, 101, 118, 126, 121, 120 (2×), 112, 129, 117%; (compound alone 0.1 µM) 141, 119 (2×), 105, 130, 110, 111 (2×), 112, 121, 127, 123%.
Regarding `CNC(=O)c1ccc(Nc2nc(OC3CCCC3)c3c(-c4ccc5nc(C)oc5c4)c[nH]c3n2)c(OC)c1`, the viability, T/C by setting is: (compound alone 0.1 µM) 93.3, 87.2, 99.1, 124 (2×), 97.9, 101, 97, 114, 102, 92.3, 99.8%; (compound alone 0.316 µM) 111, 110, 107 (2×), 106, 103 (2×), 101 (2×), 94, 102, 120%.
